Experimental data published in the supplement of paper PMC3334620.
The full ranking holds about 33,000 sequences; the median of “E-score (-0.5 to 0.5)” is about -0.012, and the highest 2% start at about 0.29. The list shows a part of the results.

target: T1, Ybr033w (UniProt P38073); experiment: PBM E-score (8-mer binding enrichment) (E-score (-0.5 to 0.5)); higher = stronger / more preferred TF binding; most listed sequences are background and not binding sites; conditions: protein concentration: 200 nM; construct: GST-full length
T1 sequence: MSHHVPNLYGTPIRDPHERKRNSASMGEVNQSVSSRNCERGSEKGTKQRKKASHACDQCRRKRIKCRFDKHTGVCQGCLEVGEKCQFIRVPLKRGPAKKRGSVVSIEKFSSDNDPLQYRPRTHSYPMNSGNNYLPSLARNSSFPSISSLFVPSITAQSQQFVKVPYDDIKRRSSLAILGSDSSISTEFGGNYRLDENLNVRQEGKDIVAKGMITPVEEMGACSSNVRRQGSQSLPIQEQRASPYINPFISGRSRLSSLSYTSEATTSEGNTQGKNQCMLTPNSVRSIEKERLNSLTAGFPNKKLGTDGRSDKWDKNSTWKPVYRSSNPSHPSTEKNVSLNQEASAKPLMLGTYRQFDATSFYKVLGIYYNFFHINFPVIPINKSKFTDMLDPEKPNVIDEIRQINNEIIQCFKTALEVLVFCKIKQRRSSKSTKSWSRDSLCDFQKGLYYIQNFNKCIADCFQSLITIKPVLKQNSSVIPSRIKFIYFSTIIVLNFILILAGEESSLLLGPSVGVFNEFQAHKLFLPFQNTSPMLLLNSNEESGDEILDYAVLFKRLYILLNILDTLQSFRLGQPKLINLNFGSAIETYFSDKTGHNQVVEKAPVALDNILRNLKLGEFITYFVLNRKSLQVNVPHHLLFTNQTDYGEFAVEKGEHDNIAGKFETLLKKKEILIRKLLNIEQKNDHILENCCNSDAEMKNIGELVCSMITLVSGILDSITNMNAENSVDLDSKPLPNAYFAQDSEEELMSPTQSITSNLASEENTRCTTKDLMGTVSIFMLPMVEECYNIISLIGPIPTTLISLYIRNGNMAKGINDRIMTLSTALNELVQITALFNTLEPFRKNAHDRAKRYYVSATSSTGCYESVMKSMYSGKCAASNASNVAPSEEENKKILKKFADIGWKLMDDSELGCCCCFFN
In short: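 For each ungapped eight-base word taken together with its reverse complement, the Universal PBM Analysis Suite assigned an E-score. Binding data came from GST-tagged yeast transcription factors, applied at about 100-200 nM, on universal all-10-mer Agilent arrays made double-stranded by primer extension. Fluorescent anti-GST marked bound protein, and scans were normalised with masliner.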

Sequence	PBM E-score
TCGCTCAA	0.177
CTGGGATA	0.0448
AATGATGA	0.153
TCGTTTAA	0.145
AGAATTTA	0.243
TCGCGACA	-0.0652
AAGCATGA	0.0674
CTTACCGA	0.0655
CCAGGGGA	-0.105
ATTGAGGA	0.111
AAGGGTGG	-0.257
AGCCACCA	0.0237
ATATATAG	0.332
TCTAATAA	0.291
ACGTATGC	-0.0461
AGCAACGA	-0.0221
ACCCTGAA	-0.0588
GTTCGCTA	0.0323
ATTCATGC	0.0624
GAGCAGGA	-0.042
GGGGCACA	-0.252
GGCAAGAA	0.0465
GATACGCA	0.0396
GTTCTTTA	0.167
ACACAGTG	-0.00934

Sequence	PBM E-score
TAAGAACA	0.222
GATCAACC	-0.059
AAAGCCTG	-0.0529
GCGTTGCA	0.00846
TAGGCCTA	0.00714
GCCTCGAA	0.108
ATAGGGAC	-0.0682
ACTCTGGA	0.145
CTGAATTC	-0.0454
CCTAGAAG	-0.16
ATGTTCCA	0.332
AGGCTTCA	-0.0768
ACTGGAGG	0.0259
AGATAGTG	0.154
GCCGCGCC	-0.232
GCTACCAA	-0.121
CCAGTCTC	-0.222
GCCAAGCC	-0.173
CCACCACG	-0.0966
AACCTCAC	-0.05
ATATCATC	0.0901
CTAAACCA	0.0356
AATGTGAA	0.313
ACGGATTA	0.233
TCGTACCA	0.159

Sequence	PBM E-score
ACTGCGCT	0.0162
CATGTCTC	0.00262
CAAGGTAC	0.022
CGTCTGAG	-0.0855
CGATAAGA	0.0559
ATAATTGC	0.255
CAACGTAA	0.0512
AGAGTTGG	0.0237
GGTGGCAA	-0.0214
ATACGTAC	-0.0727
AAGAAGTG	0.145
ATTACAGA	0.141
CGTTCATC	-0.00051
CCCATAGC	-0.127
ATGACCCA	0.0427
CTATATTA	0.284
AGGGGACA	-0.208
ATTGTAGG	0.189
CCCTGGAG	-0.239
CCAAATTC	0.111
CCCCCGTA	-0.405
GTCGGGAA	-0.0544
CGGGCAAG	-0.145
TACTTCAA	0.219
CTACTGAA	0.0539

Sequence	PBM E-score
CCTACCTC	-0.26
GGCCTCTA	-0.251
TCCATGGA	0.181
GAGATAGA	0.0389
ATCAAGTG	-0.142
AAATGCAC	-0.0186
TATGCCCA	-0.0335
TAGTGTAA	0.184
CCATATTA	0.146
AACTTCAG	0.102
AGGAGTTC	-0.145
CGCAAACC	-0.068
GTGATTGA	0.16
AAGTGTAC	-0.0324
GGTTGAAA	0.13
CGCGAGAC	-0.082
CCCATGTA	-0.0248
AGGCATGC	-0.0978
AAACCCGA	0.134
AAGGAAGA	0.129
ACCTGCTG	0.135
ACTCGACT	-0.0394
GACTTCTA	-0.0575
AGGCAGAC	-0.106
AGTGAAAT	0.165

Sequence	PBM E-score
CCTAAGTC	-0.206
CCTGAACA	-0.0549
GAGCCCAC	-0.27
ACGGTGGA	-0.0951
CCTCTAAG	-0.132
CTGGCCTC	-0.228
GGGCGTAA	-0.294
CCCTGAGC	-0.0655
AGCTTATA	-0.00365
ACTTCACC	0.0864
ACCATCAG	-0.0983
CATTGGAA	0.192
AATCTCCA	0.0207
CAAAGTAG	0.12
CGGGGGAC	-0.322
ACTATAGG	0.0138
ATACACGC	0.0245
ATCGGGTG	-0.0659
CTGCCCCA	-0.248
GAAACTAA	0.135
GCTATGAA	0.117
GTCCAGTA	0.0171
ATTGTACG	0.201
AACACAAT	0.21
TCCGGTCA	-0.066

Sequence	PBM E-score
AATGTGCT	0.0632
AGGGCCTA	-0.218
CTGGCATC	-0.206
ACGCTTTC	-0.155
AAGGTATC	-0.125
CTGGCGTA	-0.0739
CTATGGTC	-0.0605
AATCCGCA	0.119
AATGGCCA	-0.0335
ACCCCGAT	-0.036
AGCTTTCA	0.0958
AAGTGCTA	0.0657
GGTTGGAC	-0.056
CGACGGTC	-0.287
CAAACAGC	-0.0984
AGCGTCGA	-0.0109
CACCTTGC	-0.18
AAGGGAGA	-0.166
CAAACAAA	0.224
TGGCTACA	-0.111
CTCATCAC	-0.088
GATCATGA	0.178
GCTGCATA	0.0679
CGCGCAAA	0.204
AAGGGCCA	-0.246

Sequence	PBM E-score
TCCACTAA	0.0485
CTGGGTAA	0.00696
CGCCCGAG	-0.195
ACTGCGTA	-0.0835
ATAACATA	0.214
ACTCCTAA	0.0868
ATCTTATA	0.224
CCCAGATA	-0.166
ATTGACCG	-0.00177
CAACGCGG	-0.235
ACAGCCGC	-0.0825
ACCATTCA	0.0831
GGTGCGAA	-0.101
TCGACACA	-0.028
ATAGAGTA	0.108
AAGATAGT	0.0427
GGTTCAAC	0.0566
GAACACGA	-0.0138
ACAAGCCG	-0.0137
GGGGCGTA	-0.307
CACTACCG	-0.123
CCGGCTGA	-0.078
ACTTTGTC	0.167
CCAGCTCA	-0.0739
CCAAGCCA	-0.0691

Sequence	PBM E-score
TCGTACAA	0.25
AAGAAAAG	0.149
CACTACTG	0.013
GAAGGCCA	-0.239
AATAACAA	0.234
ACCTGTAG	-0.105
CATCCCGG	-0.0873
ATAAGAGG	-0.0593
ACAAGAAG	0.146
ATGTGCCG	-0.223
GTGGCAGA	-0.252
CGAAATTA	0.151
CCGCTTAC	-0.0878
GAACATGA	-0.0393
CCCTCGCC	-0.198
CATGCCTA	-0.133
TACAAACA	0.29
AACCCTGA	-0.00342
TTGCCAAA	0.0637
CACGCGCG	-0.0876
CTTATGCC	-0.0223
CCGGCACC	-0.177
GCAAGGGC	-0.285
ATCGATTG	0.199
AACGCCAG	0.105

Sequence	PBM E-score
GCCTTGTA	-0.0689
CTATCGCA	0.0795
CGTAGGTA	-0.0615
CCCAATCA	-0.127
ATGTGACA	-0.0588
CGCCAAAG	-0.0413
ATAGATTG	0.107
GAGCCACA	-0.058
ACGACTGC	-0.132
AAACTCAC	-0.0491
CTGTGCTA	-0.08
TAACGTTA	0.081
ATTGATCC	0.466
AGAACTAG	-0.084
TCGCGCGA	-0.0895
AGATCCAA	0.145
CGAATACC	-0.0362
CAAGTGCG	-0.0668
GGGTCGAA	-0.117
